# In PubChem BioAssay AID624202 (National Center for Advancing Translational Sciences (NCATS), 2012):
# The whole screen tested about 380,000 compounds, of which about 4,000 (1.1%) were called active. Inconclusive results, whose numbers are uncertain, are shown with a selection of clear calls. Calls follow the shape of the dose curve; as a rule, active = well fitted activation curve with a large enough effect; inconclusive = small, poorly fitted or top-dose-only effect; inactive = no such curve, though single readings can be large or run the other way. Potencies beside an inconclusive call are fits to weak or partial responses and may not hold up.
# Assay: qHTS Assay to Identify Small Molecule Activators of BRCA1 Expression; also: nearly all actives have a fitted effect of over 80% in size
# Conditions: MCF7-BRCA1-FFLuc reporter, luminescence, 48 h; activation: at 46.1 µM (top of the series), scaled: vehicle 0%, 10 µM genistein 100% unless noted
# Summary of the method: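 MCF7 cells carrying a BRCA1-firefly luciferase reporter (2000 cells/well, phenol-red free MEM) were attached for 2 h at 37 °C, then given compounds for 48 h. Luminescence was read 15 min after luciferase reagent; activity normalized to genistein (10 microM) and DMSO.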
# Potency is read from the fitted curve at half-maximal effect; tags tell the direction and shape of the fitted curve.
SMILES,Potency,activation
CCOC(=O)c1ccc2nc3c(cc2c1)CCS3,active: 10 µM,
COc1cccc(C(C)(O)c2nc(-c3ccc(S(C)(=O)=O)cc3)cs2)c1 (centres undefined),,inactive: -37.9%
COCCn1c(SCC(=O)NC2CCCC(C)C2C)nc2ccccc2c1=O (centres undefined),,inactive: -35.5%
Cc1ccc(NC(=O)c2cc3cccc([N+](=O)[O-])c3[nH]2)cc1,"inconclusive: 2.51 µM [activator, partial curve, poor fit]",
Cc1ccccc1Nc1nc(N)nc(CSc2ccc(F)cc2)n1,"inconclusive: 1.26 µM [activator, full curve, poor fit]",
CC1(C(=O)Nc2ccc3c(c2)OCCO3)CCN1Cc1ccc(-c2ccccn2)cc1 (centres undefined),,inactive: 7.58%
COc1cccc(/C=C/c2nccc3ccccc23)c1OC,"inconclusive: 3.16 µM [activator, partial curve, poor fit]",
CC(=O)c1cccc(NC(=O)c2ccc(-c3ccccc3[N+](=O)[O-])o2)c1,"inconclusive: 31.6 µM [activator, single point]",
O=C(COc1ccc(F)cc1)c1ccc2c(c1)CCCC2,"inconclusive: 8.91 µM [activator, partial curve, poor fit]",
CC1(C)Oc2ccc(NC(=O)C3COc4ccccc4O3)cc2O1 (centres undefined),"inconclusive: 1.26 µM [activator, full curve, poor fit]",
CC(=O)c1cnc2cc(-c3ccc(C)cc3)nn2c1C,"inconclusive: 15.8 µM [activator, single point]",
COc1ccccc1-c1cc(C(=O)N2CCOCC2)no1,"inconclusive: 12.6 µM [activator, partial curve, poor fit]",
Cc1ccc(NC(=O)Cn2nnc3ccccc32)cc1,active: 8.91 µM,
CC(=O)c1ccc(Nc2ccc(-c3ccccc3C)nn2)cc1,active: 6.31 µM,
COc1ccc(-c2coc3cc(O)ccc3c2=O)cc1OC,"inconclusive: 17.8 µM [activator, single point]",
CCCCc1ccc(-c2ccc(C)cc2O)nc1,"inconclusive: 1.58 µM [activator, partial curve, poor fit]",
COc1ccc2nc(-c3ccc(F)cc3)sc2c1,"inconclusive: 1.26 µM [activator, partial curve, poor fit]",
COc1ccc(C2c3ccc4ccccc4c3Oc3ncn(CCN(C)C)c(=N)c32)cc1 (centres undefined),,inactive: -33.5%
COc1cccc(NC(=O)CSc2ccccn2)c1,active: 10 µM,
O=C(CSc1nnc(-c2ccccc2Cl)o1)N1CCCC1,active: 7.08 µM,
CN(CC(O)COc1ccc2ccccc2c1)C1CCCCC1 (centres undefined),,inactive: -16.9%
Cc1cc(=O)[nH]c2n[nH]c(-c3ccccc3)c12,active: 11.2 µM,
NC(=O)c1ccsc1NC(=O)COc1ccccc1,"inconclusive: 35.5 µM [activator, single point]",
Cc1ccc(CSCC(=O)Nc2ccccc2C(=O)O)cc1,"inconclusive: 1.12 µM [activator, full curve, poor fit]",
Cc1cccc(C(=O)NC2C(=O)NNC2c2ccc(Cl)cc2)c1 (centres undefined),,inactive: -11.8%

SMILES,Potency,activation
O=C(NC1CC(=O)N(c2ccc(Cl)cc2)C1)N1CCN(C(=O)c2ccco2)CC1 (centres undefined),,inactive: -15.8%
Cc1ccn2c(NCc3ccco3)c(-c3ccccc3)nc2c1,"inconclusive: 12.6 µM [activator, partial curve, poor fit]",
Cc1ccc(CSc2nc3ccncc3[nH]2)cc1,,inconclusive: -63.1% [activator]
O=[N+]([O-])c1cccc(/C=N/n2cnnc2)c1O,,inactive: -21.9%
O=C(Nc1nc(-c2ccccc2)cs1)C1c2ccccc2Oc2ccccc21,,inactive: -17.4%
COc1cccc(C(=O)NCC(=O)OCC(=O)Nc2ncc(Cl)cc2Cl)c1,,inconclusive: 156% [activator]
Cc1ccc(C)c(N2CCN(C(=O)CCc3nc(-c4cccc(Cl)c4)no3)CC2)c1,"inconclusive: 15.8 µM [activator, partial curve, poor fit]",
O=C(Nc1ccc(N2CCN(C(=O)c3cccs3)CC2)c(Cl)c1)c1ccco1,,inactive: 12.4%
O=C(N/N=C/C=C\c1ccccc1[N+](=O)[O-])c1cccs1,,inactive: 39.6%
C/C(=N\NC(=O)c1c(Cl)cnn1C)c1ccc(NC(=O)c2ccc(Br)o2)cc1,active: 10 µM,
CC(=O)Nc1ccc(N=Nc2c(C)[nH]n(C(N)=S)c2=O)cc1,active: 10 µM,
N#Cc1ccc(C=NN2CCCCCC2)cc1,active: 6.31 µM,
CCCCOC(=O)Nc1nnc(C(C)C)s1,"inconclusive: 3.16 µM [activator, partial curve, poor fit]",
CCOc1ccc2oc(C(=O)Nc3ccc4c(c3)OCO4)c(C)c2c1,active: 2.82 µM,
CSc1ccccc1-c1nnc(-c2ccc(C)cc2)o1,"inconclusive: 17.8 µM [activator, single point]",
NC(=O)c1c(N)sc2c1CCC2,,inactive: 29.6%
O=C(N/N=C/c1ccncc1)c1cc([N+](=O)[O-])cc([N+](=O)[O-])c1,"inconclusive: 22.4 µM [activator, single point]",
COc1ccc(/C=C/c2nc3ccccc3n2Cc2ccc(OC)c(OC)c2)cc1,,inconclusive: -16.2% [activator]
CC(NC(=O)Nc1ccc(Cl)cc1)C1CCCO1 (centres undefined),"inconclusive: 7.08 µM [activator, partial curve, poor fit]",
NC(=S)N=Nc1c(O)cc(O)c2[nH]c(=O)ccc12,,inactive: -3.29%
O=C(Nc1ccc(N2CCCCCC2)cc1)c1ccccc1Cl,"inconclusive: 1.58 µM [activator, partial curve, poor fit]",
Cc1c(/C(O)=C2/C(=O)C(=O)N(CCN3CCOCC3)C2c2ccco2)cnn1-c1ccccc1 (centres undefined),"inconclusive: 15.8 µM [activator, partial curve, poor fit]",
Cc1cccc(/C(N)=N/OC(=O)CCC2CCCCC2)c1,"inconclusive: 10 µM [activator, partial curve, poor fit]",
COc1ccc(C(=O)Nc2nccs2)cc1OC,"inconclusive: 20 µM [activator, partial curve, poor fit]",
